Source: PubChem BioAssay AID662 (National Center for Advancing Translational Sciences (NCATS), 2007)
About 1,800 (2.5%) of roughly 71,000 compounds were called active. This list was built around the results that the source calls inconclusive (neither active nor inactive); the mix of calls is not that of the screen. Calls follow the shape of the dose curve; as a rule, active = well fitted activation curve with a large enough effect in the signal ratio, with a control signal flat (not every such curve was filed as active); inconclusive = small, poorly fitted or top-dose-only effect, or effect the other way, or a change in a side signal; inactive = flat fitted curve, though single readings scatter; the % refers to the signal ratio. Potencies of inconclusive entries are doubtful fits and often do not repeat. Peptide text beside a SMILES is read from it. * marks the point of attachment. Cbz = O=C(OCc1ccccc1)*

Assay: Cell signaling CRE-BLA (Fsk stim); as to activity change, negative = inhibition: % of control where 0% means no effect
Details: CHO CRE-bla reporter (cAMP response element driving beta-lactamase), forskolin EC10, beta-lactamase ratio
Procedure, shortened: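 Using CellSensor CRE-bla CHO cells in Opti-MEM with 0.5% dialyzed FBS, compounds were titrated with EC10 NKH 477 for 3 h at 37 °C. CCF4 ratio (460/530 nm) gave %Activity; AC50 derived.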

[1] = activity change, negative = inhibition: at 38.2 µM (top of the series) unless noted
Potency is read from the fitted curve at half-maximal effect; tags tell the direction and shape of the fitted curve.

In the case of `CCOc1ccccc1N1CCN(S(=O)(=O)CC)CC1`, the activity change, negative = inhibition [1] is reported as “inactive”.

In the case of `COc1ccc(-c2nn3c(-c4ccco4)nnc3s2)cc1OC`, the Potency [1] is reported as active: 6.31 µM.

With `Cc1nc2scc(-c3ccccc3)c2c(=O)o1` the activity change, negative = inhibition [1] was inconclusive: -22%.

In the case of `COc1ccccc1C1CC(=O)NC(C)=C1C(=O)OCC1CCCO1` (centres undefined), the activity change, negative = inhibition [1] is reported as “inactive”.

With `COCCCNC(=O)CN(c1cccc(Cl)c1)S(C)(=O)=O` the activity change, negative = inhibition [1] was inconclusive: -14.4% [at 7.6 µM].

In the case of `Cc1ccccc1N1OC2C(=O)N(c3ccc(F)cc3)C(=O)C2C1c1ccccn1` (centres undefined), the activity change, negative = inhibition [1] is reported as inconclusive: 0.571%.

For `O=C(O)c1ccc(-n2nc(C(F)(F)F)c3c2-c2ccoc2CC3)cc1`, the Potency [1] was inconclusive: 12.6 µM [rising, partial curve].

With `COc1cc(-c2nnc(Cn3cc(C(F)(F)F)ccc3=O)o2)cc(OC)c1OC` the Potency [1] was inconclusive: 12.6 µM [rising, partial curve].

For `COC(=O)Nc1sc2c(c1C(=O)NCc1ccco1)CCC2`, the Potency [1] was inconclusive: 10 µM [rising, single point].

For `CCSc1nc(-c2ccc(OC)cc2)n(-c2nc3ccccc3s2)n1`, the activity change, negative = inhibition [1] was “inactive”.

For `CCCn1c(SCC(=O)NC(C)(C)C)nnc1C(C)C`, the activity change, negative = inhibition [1] was “inactive”.

With `CC(NC(=O)c1ccnc(C(C)(C)C)c1)c1ccccc1` (centres undefined) the activity change, negative = inhibition [1] was “inactive”.

For `COCCCNC(=O)CN(C1CCCCC1)S(=O)(=O)c1ccc(C)cc1`, the activity change, negative = inhibition [1] was inconclusive: 13.1% [at 7.6 µM].

For `Cn1c(=O)c2c(nc(NCc3ccco3)n2C/C=C/c2ccccc2)n(C)c1=O`, the activity change, negative = inhibition [1] was inconclusive: -28.5%.

For `O=C(Cn1cc(C(=O)C2CC2)c2ccccc21)NCC1CCCO1` (centres undefined), the activity change, negative = inhibition [1] was “inactive”.

With `COc1cccc(C(=O)Oc2cc(N)n(S(=O)(=O)c3ccc(C)cc3)n2)c1OC` the Potency [1] was inconclusive: 25.1 µM [falling, single point].

With `CC1CCCCN1S(=O)(=O)c1ccc2c(c1)CCN2C(=O)CCC(=O)O` (centres undefined) the Potency [1] was inconclusive: 0.631 µM [rising, single point].

For `CCOC(=O)c1cc2sccc2n1CC(=O)N1CCCc2ccccc21`, the activity change, negative = inhibition [1] was “inactive”.

With `COc1ccc2c(Cl)c(-c3nnco3)sc2c1` the Potency [1] was inconclusive: 1.58 µM [rising, full curve, poor fit].

In the case of `O=C(O)c1cccnc1C(=O)O`, the activity change, negative = inhibition [1] is reported as inconclusive: -8.02% and the activity change, negative = inhibition (at 38.2 µM (top of the series)) is reported as inactive: -4.91%.

For `Cc1ccc(-c2csc3ncnc(-n4nc(C)cc4N)c23)cc1`, the activity change, negative = inhibition [1] was inconclusive: -7.38%.

In the case of `COc1ccc(OC)c(C(=O)CN2C(=O)NC(C)(c3ccccc3)C2=O)c1` (centres undefined), the activity change, negative = inhibition [1] is reported as inconclusive: -0.426%.

For `N#Cc1cc2ccccc2nc1SCc1cccnc1`, the Potency [1] was inconclusive: 10 µM [rising, partial curve].

In the case of `CCc1ccc(Nc2ncc3c(n2)CC(c2ccco2)CC3=O)cc1` (centres undefined), the Potency [1] is reported as inconclusive: 20 µM [rising, partial curve, poor fit].

In the case of `CN(c1cccc(NC(=O)CN2C(=O)c3ccccc3S2(=O)=O)c1)S(C)(=O)=O`, the activity change, negative = inhibition [1] is reported as “inactive”.

With `COCC(=O)N(Cc1cc2cc(OC)ccc2[nH]c1=O)c1ccc(C)cc1` the Potency [1] was inconclusive: 12.6 µM [rising, single point].

In the case of `O=C(c1ccco1)N1CCC2(CC1)CCN(c1ccc(-c3ccccc3)cc1)CC2`, the activity change, negative = inhibition [1] is reported as “inactive”.

For `CCN1CCC[C@H]1CNC(=O)c1c(O)c(Cl)cc(Cl)c1OC`, the activity change, negative = inhibition [1] was inconclusive: -16.3%.

For `COc1ccc(S(=O)(=O)N2CCC(C(=O)Nc3nnc(CCN4CCCCC4)s3)CC2)cc1`, the Potency [1] was inconclusive: 0.1 µM [falling, single point].

For `CC1CCN(S(=O)(=O)c2ccc(F)c(C(=O)O)c2)CC1`, the activity change, negative = inhibition [1] was “inactive”.

With `Cc1cc(C)n(-c2ccc(C(=O)OCC(=O)c3c(N)n(C)c(=O)n(C)c3=O)cc2)n1` the activity change, negative = inhibition [1] was inconclusive: 27.5%.

With `COc1cccc(C(c2nnnn2Cc2ccccc2)N2CCN(C(=O)c3ccco3)CC2)c1OC` (centres undefined) the activity change, negative = inhibition [1] was “inactive”.

For `O=C(Oc1ccc2ccccc2c1)c1ccco1`, the activity change, negative = inhibition [1] was inconclusive: 1.34%.

For `c1cn(-c2cc(-c3ccc4c(c3)OCO4)ncn2)cn1`, the Potency [1] was inconclusive: 10 µM [rising, partial curve].

For `CCN1C(=O)c2cccc3c(NC(=O)c4ccc5c(c4)OCCO5)ccc1c23`, the Potency [1] was active: 2.51 µM.

With `Cc1cc(-n2nc(C)cc2C)n2ncc(-c3ccccc3)c2n1` the activity change, negative = inhibition [1] was inconclusive: 15.2%.

In the case of `CCN1CCN(C(=O)c2ccccc2N(C)S(=O)(=O)c2ccc(C)cc2)CC1`, the activity change, negative = inhibition [1] is reported as inconclusive: -6.31%.

For `CCOC(=O)c1c(C)nc(-c2ccccc2)nc1N`, the activity change, negative = inhibition [1] was inconclusive: 23.5%.

In the case of `COC(=O)c1oc2ccc(OC)cc2c1N`, the activity change, negative = inhibition [1] is reported as “inactive”.

For `C=CCOc1cccc(C2C(C(=O)c3ccco3)=C(O)C(=O)N2CCN(CC)CC)c1` (centres undefined), the activity change, negative = inhibition [1] was inconclusive: 12.7%.

For `CN(Cc1ccccc1)Cc1nc2c([nH]1)c(=O)[nH]c(=O)n2C`, the activity change, negative = inhibition [1] was inconclusive: -2.27%.

In the case of `CC(C)(C)OC(=O)N[C@@H](Cc1ccccc1)c1nnc(S(=O)(=O)Cc2ccccc2)o1`, the Potency [1] is reported as inconclusive: 7.94 µM [falling, partial curve].

In the case of `COc1ccc(CNc2nc(SC)n[nH]2)cc1OC`, the activity change, negative = inhibition [1] is reported as inconclusive: 22.8%.

In the case of `COc1ccc(-c2nc(C#N)c(N3CCCCCC3)o2)cc1`, the Potency [1] is reported as inconclusive: 12.6 µM [rising, partial curve].

In the case of `O=S1(=O)C=C(Sc2nc3ccccc3s2)c2ccccc21`, the activity change, negative = inhibition [1] is reported as “inactive”.

In the case of `CC(C)NS(=O)(=O)c1ccc(OCC(N)=O)c(Cl)c1`, the activity change, negative = inhibition [1] is reported as inconclusive: 2.04%.

For `CCN1CCN(CCCNc2ncnc3nc[nH]c23)CC1`, the Potency [1] was inconclusive: 6.31 µM [rising, partial curve].

In the case of `CCOc1c(S(=O)(=O)N2CCCC2)ccc(Cl)c1Cl`, the Potency [1] is reported as inconclusive: 10 µM [rising, single point].

In the case of `CS(=O)(=O)N1CCCC(C(=O)N2CCc3ccccc3C2)C1` (centres undefined), the activity change, negative = inhibition [1] is reported as inconclusive: -15.5%.

In the case of `Nc1c(C(=O)NCCN2CCOCC2)c2nc3ccccc3nc2n1-c1ccc2c(c1)OCO2`, the activity change, negative = inhibition [1] is reported as “inactive”.

With `O=S(=O)(NCc1ccccc1)c1ccc2c(c1)OCCO2` the activity change, negative = inhibition [1] was “inactive”.

For `COc1cc2sc(C)nc2c2sccc12`, the Potency [1] was inconclusive: 10 µM [rising, partial curve].

For `O=C(NCCc1csc(-c2ccccc2)n1)c1cccs1`, the activity change, negative = inhibition [1] was inconclusive: -17.1%.

In the case of `CN(C)Cc1cn(CCC(=O)O)c2ccccc12`, the activity change, negative = inhibition [1] is reported as inconclusive: -2.67%.

With `COc1ccc(NC(=O)C2CC(c3ccc(OC)c(OC)c3)=NO2)cc1OC` (centres undefined) the Potency [1] was inconclusive: 25.1 µM [rising, partial curve, poor fit].

For `CCOc1ccccc1O[C@@H](c1ccccc1)[C@@H]1CNCCO1`, the activity change, negative = inhibition [1] was “inactive”.

With `CC(=O)Nc1ccc(NC(=O)c2cc(C)nn2-c2ccccc2)cc1` the activity change, negative = inhibition [1] was “inactive”.

In the case of `CCCCn1c(O)c(C(CC)=Nc2ccc3c(c2)CCC3)c(=O)[nH]c1=O`, the activity change, negative = inhibition [1] is reported as “inactive”.

For `COc1ccc(NCc2c(O)ccc3ccccc23)cc1`, the activity change, negative = inhibition [1] was inactive: -9.74% [at 7.6 µM].

With `CCOC(=O)N1CCN(C(=O)CSCC(=O)Nc2nc(-c3ccc4c(c3)OCO4)cs2)CC1` the activity change, negative = inhibition [1] was “inactive”.

In the case of `CN1CCN(c2ncc3nc(-c4ccccc4)c(=O)n(C4CC4)c3n2)CC1`, the Potency [1] is reported as inconclusive: 10 µM [rising, partial curve].

In the case of `COc1cccc(-c2cc(C(=O)N3CCCCC3C)no2)c1` (centres undefined), the activity change, negative = inhibition [1] is reported as inconclusive: -9.29%.

For `CCOc1ccc(C2=Nn3c(nnc3-c3ccc(OC)cc3)SC2)cc1`, the Potency [1] was active: 12.6 µM.

For `CC(C)CCn1c(SCc2ccc(Cl)cc2)nc2c1c(=O)[nH]c(=O)n2C`, the Potency [1] was active: 2.51 µM.

In the case of `O=C1CC(C2CCCO2)C(=O)N1Cc1ccccc1` (centres undefined), the activity change, negative = inhibition [1] is reported as inactive: -16.9% [at 7.6 µM].

With `CC(C)n1c(-c2ccc(N(C)C)cc2)nc2ccccc21` the Potency [1] was inconclusive: 5.01 µM [rising, single point].

In the case of `CC(C)C(NC(=O)OCc1ccccc1)C(=O)OCC(=O)N1C(C)CCCC1C` (centres undefined), the Potency [1] is reported as inconclusive: 3.16 µM [falling, single point].

With `COC(=O)c1ccccc1NC(=O)C(C)Oc1ccccc1` (centres undefined) the Potency [1] was active: 12.6 µM.

In the case of `N#Cc1ccc(NC(=O)c2cc3cc4c5c(c3oc2=N)CCCN5CCC4)cc1`, the Potency [1] is reported as inconclusive: 15.8 µM [rising, partial curve, poor fit].

In the case of `Cc1ccc(-n2c(C)cc(C(=O)CSc3nncs3)c2C)cc1`, the activity change, negative = inhibition [1] is reported as “inactive”.

For `C=CCCCC`, the activity change, negative = inhibition [1] was “inactive”.

With `Cc1cc(C(=O)OCC(=O)NCc2ccco2)c(C)n1-c1ccccc1` the Potency [1] was inconclusive: 3.16 µM [rising, single point].

With `COC(=O)CCC(NC(=O)OCc1ccccc1)C(=O)NC(CC(C)C)C(=O)OC` (centres undefined) (Cbz-Glu(OMe)-Leu-OMe; configuration not given here) the activity change, negative = inhibition [1] was inconclusive: -10.7%.

With `CN(C)c1ccc(-c2nccc(NCc3ccccc3)n2)cc1` the activity change, negative = inhibition [1] was inconclusive: 2.36%.

For `CCCCCOC(=O)c1ccc(NC(=O)c2ccco2)cc1`, the activity change, negative = inhibition [1] was inconclusive: 19.1%.

For `Cc1c(C)[n+](=O)c(-c2ccco2)c(C)n1[O-]`, the activity change, negative = inhibition [1] was inconclusive: -17.3% [at 7.6 µM].

For `Cc1cnnc2c1-c1no[n+]([O-])c1CC2`, the activity change, negative = inhibition [1] was inconclusive: -9.89%.

For `COc1ccc(CC(=O)Nc2ccc(-c3nc4cc(C)ccc4o3)c(O)c2)cc1OC`, the activity change, negative = inhibition [1] was “inactive”.

For `COc1cccc(/C=c2\sc3nc(-c4cccs4)nn3c2=O)c1OC`, the activity change, negative = inhibition [1] was “inactive”.

With `C=CCn1c(SCC(=O)NCc2ccco2)nc2sc3c(c2c1=O)CCC3` the activity change, negative = inhibition [1] was inconclusive: 26.8%.

With `COc1cccc(Cn2c(C3CC3)nc3ccc(NC(=O)c4ccco4)cc3c2=O)c1` the Potency [1] was inconclusive: 0.794 µM [rising, partial curve].

In the case of `Cc1ccc(S(=O)(=O)N2CCN(C)CC2)cc1-c1nnc2c3ccccc3c(C)nn12`, the Potency [1] is reported as inconclusive: 10 µM [rising, partial curve].

In the case of `COc1cc2c(cc1OC)-c1cc(OCc3cccnc3)nc(=O)n1CC2`, the Potency [1] is reported as active: 3.98 µM.
